Test results published in publication PMC7096399, “The Na,K-ATPase acts upstream of phosphoinositide PI(4,5)P2 facilitating unconventional secretion of Fibroblast Growth Factor 2” (Communications Biology, 2020).

Key:
[1] = target: T1, GST-α1-CD3, third loop of the cytoplasmic domain of α1 alone (human); assay: AlphaScreen or HTRF; competition: His-FGF2-wt (62 nM) and GST-α1 variant (15 nM) with ∆N25-FGF2 competitor from 22.5 µM to 1.4 nM; apparent IC50 taken as the apparent KD; conditions: both partners purified
T1 construct: α1 subunit of the Na,K-ATPase, human, third loop of the cytoplasmic domain, […]; also called loop 3 alone; source: E. coli, purified according to standard procedures; not shown: GST, N-terminal, kept

[2] = target: T2, GST-α1-subCD3, small sub-domain of loop 3 of the cytoplasmic domain of α1 (human); assay: as above; conditions: both partners purified
T2 construct: α1 subunit of the Na,K-ATPase, human, sub-domain of loop 3 of the cytoplasmic domain, […]; also called GST-tagged α1-subCD3; source: E. coli, purified according to standard procedures; not shown: GST, N-terminal, kept

B1: ∆N25-FGF2, non-tagged form of FGF2 lacking 25 residues at the N-terminus (domain or fragment)
chain: not shown
notes: FGF2, 18 kDa isoform ([…]), lacking 25 residues at the N-terminus; Untagged; also called untagged version of FGF2; source: E. coli, purified according to standard procedures
**Q.** For B1, which Kd [1] is on record?
**A.** 1.3 µM

**Q.** What about the Kd [2] of the same binder?
**A.** 0.8 µM
